Read counts are not given, so values of variants with three or more changes are uncertain.
B1: OR4K15 (parent)
chain: GUUAACGGUCAUAGGCCAUGGAAACUAGGAGCACCAUUUCGCUGCCAGUGAAGAAAUGAACAAAGAAAAUCUGGGCCAGGCAGGCAUCAAAAGAAAUAGUCUUGCGCUCAACCAGAAAGUCUGUAAUCAUUUUAAGGGUA

Variants of: B1
Assay: self-cleavage, relative activity (ratio to wild type); higher = more cleavage; in vitro, sequencing; the parent is a self-cleaving ribozyme

| Variant | self-cleavage |
| --- | --- |
| A23G A30G A86G A94G C121A G123A | 0.83 |
| A22G A23G A30G U103C | 0.35 |
| A22G A24G A66U A118G | 1.14 |
| A23G A27G A125G | 0.55 |
| A22G A96G U103C | 1.65 |
| A23G A24G A118G A126G U131C | 0.32 |
| A22G A23G U132C | 0.74 |
| A22G A66U A129G | 0.9 |
| G21A A92G U120C | 1.34 |
| U19C U49A A116G U130C | 0.24 |
| A22G A33G A63G A114G U127C | 0.13 |
| A22G A54C A86G U102C | 0.92 |
| A23G A24G A89G A94G A114G A126G | 0.23 |
| A23G A24G A92G | 1.07 |
| A22G A24G G41A A117G | 1.66 |
| A22U A23G A82U | 0.34 |
| A22G U26C C85U A117G | 1.55 |
| G21U U39A U72C | 0.22 |
| A22G G75C U108C A116G G136A | 0.02 |
| A22G A51G C81U | 0.55 |
| G21U A22G U130C | 1.25 |
| A22G A90G U102A | 0.4 |
| A22G A86G A111U | 0 |
| A22U A68G A92G A129G | 1.27 |

| Variant | self-cleavage |
| --- | --- |
| A22G A33U A47G U87C | 0.95 |
| A22G U70C A111G | 0.03 |
| A22C A68G U122C | 0.49 |
| A22G A78U A134G | 0.19 |
| A22G A82U U131C | 0.18 |
| A22G A51G U57C A68G U72A | 0.38 |
| A22G U38A A51G A129G | 0.89 |
| G21U A47G A62G A91G U131C | 0.21 |
| A22U A55G A92G A111U | 0.13 |
| A22G U108C A117G U122A | 0 |
| A22G A54G A67G C76U A82U A95U U120C | 0.08 |
| A22G U57C A62G | 0.83 |
| G20A A30G U100C U124C | 1.58 |
| A22G U49C A56G A82G | 0.23 |
| G21A A24C A118G A129G | 0.51 |
| G21U U37A A63G U87A | 1.91 |
| A22G U49A A86G A91G A95G | 0.27 |
| A22G A52G A94G | 1.97 |
| A22U G79A A82U U102A A110C A126G | 0.01 |
| A22G A89G A94G | 1.02 |
| A22G U38C U130C | 0.82 |
| A22U U70C U132C | 0.84 |
| A22G U43C A91G | 0.73 |
| A22G A63G U87C | 1.07 |

| Variant | self-cleavage |
| --- | --- |
| A22G A52G A62G U102C U130C | 1.18 |
| U19C U70A U87G | 0.31 |
| A22G A59G G83U | 0.54 |
| A22G A47U A66C A78G | 0.23 |
| A22U U72A U131C | 0.27 |
| A22G A23U A55G | 0.63 |
| A23G A30G A64G A86U A92C A95G A135U | 1.58 |
| A22G A118G U120C U131A | 0.09 |
| A22G C35U A91G | 0.9 |
| A22G A24G U43C A55G A129U | 1.48 |
| U19C U122C U124C U130C | 0.57 |
| U19G G50A U132A | 0.38 |
| A22G A62G U102C U139C | 0.87 |
| A22G A36C A55G A82U | 0.36 |
| G21A U72G A82G U132C | 0.22 |
| A22G A95G C107U | 0.03 |
| A22G A64G A129G | 1.7 |
| U19C U49A A63G U132C | 1.18 |
| A22U A24C A78U | 0.23 |
| A23G A30G A33G U102C | 1.06 |
| A22G A52G A54G A111G U130A | 0.02 |
| A23C U39C A47G | 1.39 |
| A22G A64G A91G U103C A114U U130C | 0 |
| A22G A92G U102A | 1.08 |

| Variant | self-cleavage |
| --- | --- |
| A22G U49C A98G | 0.22 |
| A22G U49C U57A A78U A91G | 0.11 |
| A22G G28C A30G A91G A125G | 0.26 |
| A22U A23U U39G A114U | 0.16 |
| U19C U97G A125G U131C | 0.46 |
| A22G A59G G99A A126G | 0.04 |
| A22G A33G U127G U139C | 1.61 |
| U19C U72C A90G A91G U124C | 0.1 |
| A22G A55U A92U | 1.54 |
| A22G A54G U87C A117G A126G | 1.16 |
| A22U A33G A68G A86G | 0.65 |
| A22G U38C A63G U120C | 1.25 |
| A22G A51G A67G G83A | 0.89 |
| A22G U122C A126G | 1.02 |
| A22U A23G A63G A111G A140G | 0.16 |
| A22G U39C U103C | 0.67 |
| A22U A78G U103A | 0.06 |
| A22G U43C A135G | 1.27 |
| U19C U87C U100C | 1.69 |
| A22G U38C A66C | 1.37 |
| A22G A30G A94G | 1.29 |
| A22G U39A U49C A66G U100A | 0.46 |
| G21A A52G A62U U100C | 1.9 |
| U19G G31A U49C A114U A134G | 0.06 |

| Variant | self-cleavage |
| --- | --- |
| A22G U39A A63G A98G | 1.19 |
| A22G A86U G138U | 1.26 |
| A22C G28A A78C A90G A111U | 0.02 |
| A22G A24G A78G | 0.26 |
| A22G A54G U72C U139A | 0.28 |
| A22G A86G U132C | 1.12 |
| A22U G29A A47U A91G | 0.77 |
| A22G A62G A67G U122C | 0.76 |
| G21A G83A A91G | 2.27 |
| A22C A64U A82U | 0.26 |
| A22G A129G U132C | 0.84 |
| A22G A52G A59G A82G | 0.6 |
| A22G U57C A114G | 0.2 |
| A22G A23G A96G A125G | 0.34 |
| U19G U57C U70A A126G | 0.2 |
| A22G A33G U132C | 1.12 |
| A22G U97C A116U | 0.05 |
| A22U A33G U38G A89G U131C | 0.71 |
| A22U G74A A96G U102C C107G U127A A129G | 0 |
| A22G A51G U100C A126G | 0.82 |
| A22G U38C A47U C71A | 0.67 |
| A22G U38C G80U A89G U131C | 0.16 |
| A22G A62G A82U U127C U132C | 0.06 |
| G20A A24G A33C | 1.24 |

| Variant | self-cleavage |
| --- | --- |
| A22G G31A A51G | 1.89 |
| A22G A52G U120C U122C | 0.5 |
| A22U U43C A82G | 0.23 |
| A22G A59G A114G C121U | 0.81 |
| A22G U38C A62U A82U A118G | 0.11 |
| A22G U43C U120A | 1.25 |
| A22G A47G A55G A56G | 0 |
| A22U G44A A52G A54G A68G U122C A126G A140U | 0.48 |
| G21C G73A G75C A90G A140G | 0.12 |
| A22G U39C A90G | 0.3 |
| A22G A92G U122C | 1.1 |
| A22U A91G G115A U122C | 0.03 |
| A22G A52G A60G | 1.61 |
| A22G A30U A59G A98G | 0.68 |
| A22G U57A U72G | 0.21 |
| U19C U87C A96G U100C A125G | 1.38 |
| A22G A66U U87C A126G | 0.68 |
| A22G U39C C107G | 0.05 |
| A22G U39A U57C A140U | 0.98 |
| A22G A94G U102A | 1.59 |
| A22G A64G G106A | 0.01 |
| A22G A24G A94G | 0.57 |
| A22G A86G A118U | 0.29 |
| A22G A36U U108C A110C | 0 |

| Variant | self-cleavage |
| --- | --- |
| G21U A23C A33G A63G | 1.48 |
| A22U A69G U97A A116G | 0.33 |
| A22U A78G U122C | 0.19 |
| A22G A66G A67G | 1.42 |
| A22G A27G A96G G106A | 0.03 |
| A23G A24G C45U U57C | 0.42 |
| U19C U43C A66G A96U | 1.89 |
| A22G A52G A55G | 1.21 |
| A22U U70C U72C A118G | 0.14 |
| A22G A33G U100C | 1.41 |
| G21C C71U U102C A116U A117G | 0.09 |
| A22G A63U A118G | 0.9 |
| A22U A67G A95G U133C | 2.24 |
| U19G A89G U130C U132C | 0.6 |
| A22G A51G A55C | 0.69 |
| A22G U26C A52G A110G | 0.13 |
| A23G A30G U39C A52U | 1.15 |
| G21A U38C U39C U87A U122A A126G | 1.8 |
| A22G C34U A36C C121A U132C | 1.99 |
| A23C A60G U70A | 1.18 |
| A22U A60C A95G U97C | 1.37 |
| A22G A63G U122C | 1.23 |
| A22G A27G U87C U103C | 0.16 |

Reference: the RNAGym collection of RNA variant scans (doi:10.7554/elife.90254)
